The source gives no read counts; variants with many changes may rest on few reads.

B1: CPEB3 Ribozyme (parent)
chain: UAACAGGGGGCCACAGCAGAAGCGUUCACGUCGCAGCCCCUGUCAGAUUCUGGUGAAUCUGCGAAUUCUGCUGUAUAUCUC

The series covers variants of B1. The experiment in a line: self-cleavage, relative activity (ratio to wild type); higher = more cleavage; in vitro, sequencing. The method in brief:
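Relative activity was defined as the cleaved/total read fraction for a variant divided by the same fraction for the unmutated ribozyme. CPEB3 self-cleaving ribozyme libraries were made by rounds of error-prone PCR, barcoded, and transcribed in vitro with T7 RNA polymerase for 5 hours at 37°C, and cleavage ran through transcription plus a 15 min DNase I step before EDTA. Illumina sequencing of template-switched reverse transcripts gave the reads, and DNA sequencing mapped the barcodes. Averages come from three batches, using variants with at least 5 reads.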
Turning to A5C A18U C38U, the self-cleavage is 0.15.
To A5C C12G A21G U41A C68A belongs 0.1; to C4U U26C A47G U66A A75G, 0.28.
The result for C4U A21G U26C U51C U60C reads 0.21; that for A5C C62A A77G, 0.27; that for C4U U60C U78C, 0.54.
To C4U C11A A13G A18G U26C U66C belongs 0.04; to C4U U31G U80C, 0.83; to A5G A18C U72C A75G U78A, 0.62.
As for A5C G9A U72C, the self-cleavage worked out at 0.7.
To A5G A13G C23U A57G G61A U80A belongs 0.07.
The result for C4U C11U U26A U43C U48C reads 0.08; that for A5C A21G A28G U43A A64U U72C, 0.35; that for A5G A13U U25C A56U U60A C68A A77U, 0.05.
The result for A5G A18G A35G U72C reads 0.35; that for A5G A13G A28G U49C, 0.05.
As to A5C U43A A64U U72C, the self-cleavage turned out to be 0.51.
As for A5C A28G A35G U58C, the self-cleavage amounted to 0.82.
To A5G A13G A18G U26A U48C A56G belongs 0.17; to A5G A15G U78C, 0.61.
Take A5G A13G A35G U69C: the self-cleavage was determined as 0.13.
The result for A5C A20U U26C U60A reads 0.34; that for A5G A15G U31C, 0.58.
The result for A5G A15G U25C A57U reads 0.6; that for C4U U31C A45U G70A, 0.47.
The result for C4U G10A A13G A56G reads 0.14; that for A5G A15G A20G U48C, 0; that for A5C U31C U67C U78C U80A, 0.19.
With A5G A15G A28G A47U U60C, the self-cleavage turned out to be 0.16.
The result for A5C A13U A18G G22A U25C reads 0.08; that for A5G A15U C23U U54C U69C U78C, 0.15; that for A5G A15C U31C C50U U69C, 0.34.
The result for A5C A20U A56C reads 0.16.
To A5C A64U U69C G73A belongs 0.22.
Regarding C4U G10C A64G U78C, the self-cleavage stood at 0.32.
To C4U C40U A57G belongs 0.56; to A5G A15U C39A U80C, 0.13; to A5G A13U U41A U58A U66C U74A, 0.26.
In the case of A5C A35C U80G, the self-cleavage is 0.57.
The result for A5C U25C U48C reads 0.11; that for A5G A15G G36C, 0.37.
For A5G A15C U26C U51A, the self-cleavage was 0.16.
To A5G A18C U31C belongs 0.54; to A5G A13G A18U A57G A77G, 0.25; to A5C C14U U25C A56G, 0.44.
The result for A5G A15G U72A reads 0.42.
To C4U U26A A47U G55U A75G U80C belongs 0.11; to C4U A45C A56G A64G, 0.14; to C4U G70A U72C, 0.64.
Regarding A5G A15G A18U A45G U60A, the self-cleavage amounted to 0.52.
The result for A5C A15U C29U A64U A77G reads 0.15; that for A5C C71U U78C, 0.33.
The result for A5G A13C C44A U48C U69A reads 0.08; that for C4U A28G A64G, 0.96; that for A5C A13G A21U U25C G30C G33A G42A, 0.06.
The result for A5G A13U A45U reads 0.57.
For the variant A5G A15U A28C U31A U67C, the self-cleavage turned out to be 0.11.
The result for A5C A21G U31C U43C U60C A65G U74C reads 0.2.
To A5C U31A A35G U49A U67C G70A U76C belongs 0.58.
The result for A5G A13U A20U A56U U58C reads 0.09; that for C4U U49C U51C, 0.75.
On to A5C A45G U72C U78G, for which the self-cleavage stood at 0.42.
The result for A5G A15C U26C U51A U78G reads 0.34; that for A5G A13U U26C A45G A57G U69C A75U, 0.18.
To A5G A13U A20G G22A A56G belongs 0.15.
The result for A5G A13G U72C reads 0.68; that for A5G A18G A21G C62A U66C, 0.11.
Consider A5C A18G U54A C62U, for which the self-cleavage came to 0.35.
With A5C U72A U78C, the self-cleavage came to 0.86.
The result for A5G A13G G33U A57G U69C reads 0.1.
To C4U U60C U69C belongs 0.7.
The result for A5G A15U U72C reads 0.43.
A5G A13U A21C A65G A77G: the self-cleavage is 0.21.
To A5C U48C U51C belongs 0.4; to A5C U31C A35U A47U U49A U74C, 0.05.
The result for C4U C44U U60C A64G reads 0.17; that for C4U U26C A56G U66A, 0.23.
To A5G A18G A21G C29A belongs 0.5; to A5C A64G U74C A75G, 0.8.
On to A5C A21G U31C U43C U51C A65G U67A, for which the self-cleavage is 0.1.
The result for C4U C37U U43A U67C U72A reads 0.3; that for A5C U78C U80C, 0.55; that for A5G A15G G24U A65G U78C, 0.22.
To A5G A13U U31C belongs 0.65; to A5G A13G A28U A56G U67C, 0.28; to A5C U49A U51A U58C, 0.1.
A5G A13G C40A A64G: the self-cleavage worked out at 0.1.
For the variant C4U A20U U80C, the self-cleavage was determined as 0.69.
To A5G A15G A18G U54G U80A belongs 0.7; to A5C U48C G73C, 1.1.
The result for A5C U25C A35C G42U A64U reads 0.3; that for C4U U26C U69A U80C, 0.31; that for A5G A13G A18G, 0.23.
The result for C4U G7U A47G A75G reads 0.05; that for A5C A18C A45C, 0.1; that for C4U A47G A57G U74A A75G, 1.11.
As to C4U A47G A64U U80A, the self-cleavage came to 0.51.
To C4U A45U A65G belongs 0.39.
The result for A5G A13U A45G U60A U72C reads 0.2.
Take A5G A13U A20G A47U: the self-cleavage stood at 0.06.
Turning to A5G A15U G19C C32U C38U U69A, the self-cleavage turned out to be 0.07.
Take A5C A45G U48C: the self-cleavage was determined as 0.49.
To C4U U26A G30A U41A U58C U72A U76C belongs 0.1.
For A5G A13G A35U U51A U78A, the self-cleavage stood at 0.74.
For A5G A15C U41A, the self-cleavage is 0.3.
To C4U A21G C27A A28G U41A U72A U78A belongs 0.06.
Consider A5G A13G A20G A21U A35G U41C, for which the self-cleavage stood at 0.
Turning to A5G A15C U54A, the self-cleavage was 0.49.
To C4U C14U A21G U49A A57G U78A belongs 0.15.
The result for C4U U25C A35G A45G U69A U74C reads 0.11; that for A5G A13U U80A, 0.76; that for A5C A13U A28C A57G U60A, 0.07.
To A5G A13U A18G U25C A28U U49C belongs 0.34; to C4U U26C G33A U76C, 0.45; to C4U U25C C40U A56G, 0.24.
C4U G33A C40U U72C: the self-cleavage was determined as 0.35.
The result for A5C G8U A21G A35U reads 0.17; that for A5G A18C G30U, 0.09.
For A5G A15G G30C C59G, the self-cleavage worked out at 0.02.
The result for A5G A13G U26A G36C reads 0.63.
To A5G A15G U54C U69A U76C U78C belongs 0.13; to A5G A15U A35U, 0.41.
To A5C A65G U72C belongs 0.63; to A5C G6A A64G U66C U69A U72C A77U, 0.12.
For the variant C4U A21C U48C U72A U76C, the self-cleavage is 0.17.
The result for A5G A15G C17G A20G A75U reads 0.61; that for A5C G8A A21G, 0.64; that for A5G A15U C34G C62G, 0.07.
To A5G A13U G24A A35U U43A A56G belongs 0.38; to C4U A21C U51A U60A U74C, 0.12; to C4U A21G C23U A35U A75U, 0.21.
The result for A5G A13G U26A G33C A47U U48C U78C reads 0.06; that for A5C C11U A45U A57G C59U, 0.24; that for A5C A13G U31A U51A, 0.98.
As for A5C U48C U69C U72C U78G, the self-cleavage worked out at 0.23.
A5C U58C U80A C81U: the self-cleavage was found to be 0.88.
To A5C U41A A57U belongs 0.23; to A5C A20U A75G, 0.16.
The result for A5G A13C U26C G73U U76C reads 0.67; that for C4U U41C A45G U69A, 0.67.
As for A5G A18C U26C U60C, the self-cleavage was determined as 0.
To A5G A13C U41C A75G belongs 0.36.
The result for A5C U41A A64G G73A U80C reads 0.12.
The result for A5C A18G A28G reads 0.35; that for A5G A15G U69A, 0.41.
As to A5G A15C U26C, the self-cleavage is 0.13.
In the case of A5G A15U A75U, the self-cleavage was determined as 0.62.
To A5C A13U C37G U67C U78A belongs 0.12.
Take A5G A13G A18G G33C U43C U49A: the self-cleavage was 0.3.
As for A5G A15U U41A A77G, the self-cleavage was determined as 0.26.
The result for A5G A13G C32U U41C U51G A57G reads 0.11.
To C4U U25C U67C belongs 0.14; to A5G A13G A45G U49C U78A, 0.12; to C4U G24A A47C, 0.25.
Regarding C4U G22C A28U A35G A64G U78C, the self-cleavage stood at 0.08.
For the variant C4U U41G A56G U74C, the self-cleavage is 0.46.
To A5C G9U A21G U25A A28U belongs 0.31; to A5C A21G A64U, 0.18.
To C4U U31C U60C belongs 0.61.
To A5C G10A A64U A65G U74C U80A belongs 0.05.
Turning to A5G A13G A18G C40G, the self-cleavage is 0.23.
On to A5C U31C U48C U51C U80C, for which the self-cleavage was found to be 0.3.
Take A5G A13C A20G A21G: the self-cleavage was determined as 0.68.
To C4U A28G C29A U41C C71U belongs 0.23; to A5G A13G U41A, 0.32.
To A5C A45C U74A belongs 1.02; to A5G A15U A45U G53A, 0.32.

Source of the values: the RNAGym collection of RNA variant scans (doi:10.1093/nar/gkz1192).
